In all, about 48,000 compounds went through this assay and about 450 (0.94%) were called active. About 19% were inconclusive and are not listed. Calls come from the whole dose curve; as a rule, active = well fitted inhibition curve with a large enough effect; inconclusive = small, poorly fitted or top-dose-only effect; inactive = no such curve, though single readings can be large or run the other way. This is one part of the list.
Assay: Primary qHTS for Identification of Small Molecule Inhibitors of Huntingtin Promoter Activity; note: nearly all actives have a fitted effect of over 50% in size
Details: HEK293 HTT promoter firefly luciferase reporter (activity 0% = vehicle and -100% = no light), 24 h; series mostly up to 57.5 µM; activity change, negative = inhibition: at the top concentration
Summary of the method: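 Quantitative HTS used concentration series of up to 57.5 uM final on HEK293 luciferase reporter cells, 24 h at 37 degrees C. Readout was Dual-Glo firefly luminescence.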
Potency is the fitted concentration of half-maximal effect.

Activity change, negative = inhibition, inactive:
CC(C)(C)c1ccc(C(=O)Nc2ccc(OCc3cc(=O)n4ccsc4n3)cc2)cc1 -9.2%, COc1ccc(CCNC(=O)c2ccc(Cn3c(=O)c4ccccc4n(Cc4ccc(F)cc4Cl)c3=O)cc2)cc1OC 23%, CCN1CCN(C(=O)c2ccc3c(c2)N(Cc2ccccc2)C(=O)c2ccccc2S3(=O)=O)CC1 2.55%, CCOc1ccc(-c2cn3c(n2)sc2cc(C(=O)N4CCCC(C)C4)ccc23)cc1 (centres undefined) 13.7%, Cc1nc(N2CCOCC2)c2c(C(=O)N(C)c3ccccc3)c(C)oc2n1 -5.26%, CC(C)Cc1nn2c(=O)cc(COC(=O)c3cccc(NS(C)(=O)=O)c3)nc2s1 -5.91%, COc1ccc(CNC(=O)CCCN2C(=O)CCn3nc(-c4cn(C)c5ccccc45)cc32)cc1 -23.3%, COc1ccc(OC)c(NC(=O)Cn2ncc3c2-c2ccccc2OC3)c1 -17.1%, O=C(NCCC1=CCCCC1)C1CCN(C(=O)N2CCOc3ccccc32)CC1 -29.4%, O=C(NCCc1ccc(Cl)cc1)C1(c2cccs2)CCOCC1 -14.9%, Cc1ccc(-n2c(=O)c3cccnc3n2CC(=O)Nc2ccc(C)cc2Cl)cc1 10.3%, Cc1cccc(-c2nc(CS(=O)CC(=O)NCc3ccc(Cl)cc3)c(C)o2)c1 (centres undefined) -11.6%, O=C(NCCc1ccccc1)c1ccc(CSc2nc3cccnc3n2Cc2ccccc2F)cc1 -22.6%, COc1cccc(-c2cn3c(n2)sc2cc(C(=O)NCc4ccccc4F)ccc23)c1 3.99%, CCOC(=O)c1cc(-c2ccccc2)n(CC(=O)NCc2ccc(C)cc2)c1C 1.32%, CCOC(=O)c1c(C)oc2nc(C)nc(NCC3CCN(Cc4ccccc4C)CC3)c12 8.74%, Cc1ccc2nc(-c3cccc(NC(=O)c4cccc5c(Cl)cccc45)c3)oc2c1 -7.25%, O=C(NCC(c1cccnc1)N1CCOCC1)C(=O)Nc1ccc(Cl)cc1 (centres undefined) -11.3%, Cc1ccc(S(=O)(=O)n2nc(-c3ccccc3)nc2NCc2ccccc2Cl)cc1 -17.7%, C#C[C@]1(O)CC[C@H]2[C@@H]3CCC4=Cc5oncc5C[C@]4(C)[C@H]3CC[C@@]21C -17.5%, Cc1ccc(-c2cc(C(=O)N3CCN(S(=O)(=O)c4ccc(Br)s4)CC3)[nH]n2)cc1C -21.1%, COc1ccc(CNc2nc(-c3ccco3)nn2S(=O)(=O)c2ccc3ccccc3c2)cc1OC -22.7%, Cc1cc(C)n2nc(NCc3ccccc3Cl)nc2n1 5.87%, Cc1ccc(C)c(NC(=O)Cn2c(=O)n(Cc3nc(C)no3)c(=O)c3cc4c(cc32)OCO4)c1 -15.4%, CCc1ccc(NC(=O)Cn2c(=O)n(Cc3ccc4c(c3)OCO4)c(=O)c3oc4ccccc4c32)cc1 -0.851%, CC(=O)Nc1ccc(NC(=O)CSc2cn(CC(=O)N(C(C)C)C(C)C)c3ccccc23)cc1 -4.5%, Cc1cc2oc(C(=O)NCCc3ccc(S(N)(=O)=O)cc3)cc(=O)c2cc1C -21.7%, CCC(=O)N1CCc2cc(S(=O)(=O)NC(Cc3ccccc3)C(=O)NCc3ccc(C)cc3)ccc21 (centres undefined) -10.4%, COc1ccc(OCCn2cc(C(=O)c3ccco3)c3ccccc32)cc1 -28.4%, CCOc1ccccc1CN1C(=O)c2ccccc2C1C(=O)NC1CCCCCC1 (centres undefined) -11.7%, COC(=O)c1cc2occc2n1Cc1nc(-c2ccccc2C)oc1C -5.22%, COc1ccc(-c2nc(C)c(CCNC(=O)c3ccco3)s2)cc1 20.5%, CCC(C)Sc1nc2c([nH]c3ccccc32)c(=O)n1C (centres undefined) -1.16%, Cc1ccccc1COC(=O)c1ccc(-c2nnn(Cc3ccccc3F)n2)cc1 21.3%, CCN1CCN(C(=O)c2ccc3c(c2)N(Cc2c(F)cccc2Cl)C(=O)c2ccccc2S3)CC1 -24.2%, O=c1c(-c2cc(-c3ccc(F)cc3)nc3c2COc2ccc(Cl)cc2-3)coc2ccc(F)cc12 -1.62%, CC(=O)N1c2ccc(S(=O)(=O)N3CCN(c4cc(Cl)ccc4C)CC3)cc2CC1C (centres undefined) 7.04%, O=C(CCCCCn1c(=O)[nH]c2ccccc2c1=O)N1CCN(c2ccc(Cl)cc2)CC1 -9.7%, COc1cc2c(cc1OC)C(COc1cc(C)cc(C)c1)N(C(=O)c1ccc(S(=O)(=O)N3CCCC3)cc1)CC2 (centres undefined) -24.5%, O=C(CSc1nc2c([nH]c3ccccc32)c(=O)n1-c1cccc(Cl)c1)NCc1ccccc1 -23.8%, CCc1nnc(NC(=O)CSc2nc3c([nH]c4ccccc43)c(=O)n2-c2ccc(C)cc2)s1 -24.5%, CCc1nc2ccc(C(=O)N3CCN(c4cccc(OC)c4)CC3)cc2nc1CC -14%, CCOC(=O)C1CCCN(C(=O)Cn2ncc3c4ccccc4n(Cc4ccc(F)cc4)c3c2=O)C1 (centres undefined) -18.7%, O=C(COc1ccccc1)Nc1sc2c(c1C(=O)Nc1ccccc1)CCCCC2 2.3%, CC(=O)SCC(CC(=O)c1ccc(C)cc1)C(=O)O (centres undefined) 11.8%, CCOC(=O)CNC(=O)CC(c1cc(OC)c(OC)c(OC)c1)N1Cc2ccccc2C1=O (centres undefined) -9.39%, CCOC(=O)c1ccc(NC(=O)CCn2c(=O)oc3ccccc32)cc1 -5.98%, CCN(CC)c1ccc(C(=O)Nc2ccc3nc(N(CC)CC)cc(C)c3c2)cc1 -22.8%, Cc1ccc2[nH]c(CSc3nnc(NC(=O)COc4ccccc4Cl)s3)cc(=O)c2c1 5.59%, CN(Cc1ccccc1)C(=O)Cn1c(=O)c2cccn2c2ccc(F)cc21 17.2%, O=S(=O)(NCC(c1ccco1)N1CCOCC1)c1ccc(Cl)cc1 (centres undefined) -7.54%, Cc1ccccc1NC(=O)C1CCN(S(=O)(=O)c2ccccc2)CC1 -14.1%, O=C(Nc1ccccc1C(F)(F)F)Nc1c[nH]c(=O)[nH]c1=O 2.51%, COc1ccc(Nc2c(-c3ccco3)nc3cccc(C)n23)cc1 -32.8%, CCN(CC)CC(=O)Nc1c(C)cccc1C(=O)OC -0.293%, Cc1ccc2c(C)c(C(=O)N3CCC(c4nc5ccccc5s4)CC3)oc2c1C 23.1%, Cc1c(C(=O)OC2CCCCC2)[nH]c2c1C(=O)CC(c1ccccc1)C2 (centres undefined) -12.4%, CCN(CC)S(=O)(=O)c1ccc2c(c1)N(CC(=O)NCc1ccc(F)cc1)C(=O)CO2 -14.9%, Cc1ccc2oc(=O)c3cnn(CC(=O)N4CCN(c5cccc(C(F)(F)F)c5)CC4)c3c2c1 5.46%, CCC(C)NC(=O)CSc1nc2c(sc3ccccc32)c(=O)n1CCc1ccccc1 (centres undefined) -5.39%, O=S(=O)(c1cccc(C(F)(F)F)c1)N1CCC(Oc2ccc(-n3cnnn3)cc2)CC1 -23.8%, COc1ccc(NC(=O)C2=C(C)Nc3c(C(=O)Nc4ccc(C)cc4)cnn3C2c2cc(OC)ccc2OC)cc1 (centres undefined) -6.45%, COc1cccc(NC(=O)Cn2c(=O)n(Cc3ccccc3)c(=O)c3c2c2cc(C)ccc2n3C)c1 3.91%, CCCN1CCc2nc(SCC(=O)Nc3ccc(C)c(Cl)c3)[nH]c(=O)c2C1 35%, CCOc1ccc(C(=O)N2CCC(c3nc(-c4ccc(S(=O)(=O)N5CCCC5)cc4)no3)CC2)cc1 -21.9%, c1ccc(CSc2nnc(C3CCNCC3)o2)cc1 -6.43%, COC(=O)c1ccc(NC(=O)CCn2cccn2)cc1 23.3%, Cc1ccc(C(C)C)c(OCC(=O)Nc2cccc(-c3nc4ncccc4o3)c2)c1 -20.6%, CCOc1ccc(-c2cc3c(=O)n(Cc4nc(-c5ccc(OC)cc5OC)oc4C)ccn3n2)cc1Cl 32.2%, COc1cccc(Oc2nc3c(c(=O)n(Cc4ccccc4Cl)c(=O)n3C)n2C)c1 -18.4%, COc1ccccc1NC(=O)c1nnn(-c2ccc(F)cc2)c1C 32.2%, Cc1cc(F)ccc1NC(=O)C(C(C)C)N1Cc2ccccc2C1=O (centres undefined) 30.5%, COc1ccc(CNC(=O)c2ccc3c(c2)N(Cc2ccccc2)C(=O)c2ccccc2S3=O)cc1 (centres undefined) -7.53%, CC(=O)Nc1ccc(S(=O)(=O)NC2=NCN(C(C)C)CN2)cc1 -14.7%, COc1ccc(C(=O)N2CC(=O)Nc3ccc(C)cc3C2c2ccc(F)cc2)c(OC)c1 (centres undefined) -18.5%, CN(CC(=O)NCc1ccccc1Cl)S(=O)(=O)c1ccc2c(c1)c(=O)n(C)c(=O)n2C -9.25%, Cc1sc2ncn(CC(=O)N3CCN(c4ccccc4F)CC3)c(=O)c2c1S(=O)(=O)N1CCN(c2ncccn2)CC1 -10.5%, Cc1ccc(Cl)cc1N1CCN(C(=O)Cc2c(C(=O)O)c(C)cn2C)CC1 -16.9%, O=c1c(-c2cc(-c3ccc(Cl)cc3)nc3c2COc2ccccc2-3)coc2ccccc12 -8.93%, CCC(=O)N1CCc2cc(Br)cc(S(=O)(=O)CCC(=O)NCCc3ccc(C)cc3)c21 1.75%, CNC(=O)C1CCC(Cn2c(=O)c3sccc3n(CC(=O)Nc3cc(F)ccc3F)c2=O)CC1 (centres undefined) -17.7%, CC(=O)Nc1cccc(NC(=O)CSc2cn(CC(=O)N3CCCCCC3)c3ccccc23)c1 -20.2%, CCOC(=O)c1cccc(NC(=O)N2CCC(CN3CCCCCC3)CC2)c1 -8.3%, O=C(Nc1ccc2oc(-c3cccc(Cl)c3Cl)nc2c1)c1cccc(Br)c1 -14.1%, O=[N+]([O-])c1cc(-c2nc(-c3ccncc3)no2)ccc1NCc1ccccc1 -1.55%, COc1cn(CC(=O)Nc2cc(C)ccc2C)c(CN2CCCCC2)cc1=O -19.5%, COc1ccccc1NC(=O)C1=C(C)Nc2nc(SCc3ccccc3Cl)nn2C1c1ccncc1 (centres undefined) -14.4%, CCOc1ccc(C(=O)c2cn(CC(=O)Nc3cc(OC)ccc3OC)c3cc(OC)c(OC)cc3c2=O)cc1 -14.4%, COc1ccc(-c2ccc(=O)n(CC(=O)NCCc3ccccc3)n2)cc1 9.62%, O=C(O)c1cccnc1, CCc1ccc(OCCSc2nc(-c3cccc(C)c3)nc3cc(=O)[nH]n23)cc1 0.505%, COc1ccc(NC(=O)CCSc2nc(-c3ccco3)cc(C(F)(F)F)n2)cc1OC -21.5%, COc1ccc(NCc2nnc3n2CCCCC3)c(OC)c1 -9.67%

Potency, active:
CC(=O)c1c(C)oc2ccc(N(C(=O)c3ccncc3)S(=O)(=O)c3ccc(C)cc3C)cc12 28.2 µM

— PubChem BioAssay AID1508623 (National Center for Advancing Translational Sciences (NCATS), 2021)
